Measurements reported in PubChem BioAssay AID1768 (National Center for Advancing Translational Sciences (NCATS), 2009).
In all, about 270,000 compounds went through this assay and about 620 (0.23%) were called active. This list was built around the results that the source calls inconclusive (neither active nor inactive); the mix of calls is not that of the screen. The call rests on the fitted dose curve; in most records, active means well fitted inhibition curve with a large enough effect in the polarisation, with a control signal flat (not every such curve was filed as active); inconclusive means small, poorly fitted or top-dose-only effect, or effect the other way, or a change in a side signal; inactive means no such curve, though single readings can be large or run the other way; the % refers to the polarisation. Where the call is inconclusive, the potency comes from a doubtful curve fit. “Side channel” marks fits to a control or component signal instead of the main read-out.

Each compound was assayed against Menin (Homo sapiens) (UniProt O00255) (assay: qHTS Assay for Inhibitors Targeting the Menin-MLL Interaction in MLL Related Leukemias: Competition With Texas Red Labeled MLL-derived Mutant Peptide). Conditions: fluorescence polarization; series mostly up to 61.6 µM.
Potency means the concentration at half of the fitted maximal effect; tags describe the fitted curve by direction and shape or compound fluorescence and quenching.

Chain of UniProt O00255 (O00255 whole entry, looked up): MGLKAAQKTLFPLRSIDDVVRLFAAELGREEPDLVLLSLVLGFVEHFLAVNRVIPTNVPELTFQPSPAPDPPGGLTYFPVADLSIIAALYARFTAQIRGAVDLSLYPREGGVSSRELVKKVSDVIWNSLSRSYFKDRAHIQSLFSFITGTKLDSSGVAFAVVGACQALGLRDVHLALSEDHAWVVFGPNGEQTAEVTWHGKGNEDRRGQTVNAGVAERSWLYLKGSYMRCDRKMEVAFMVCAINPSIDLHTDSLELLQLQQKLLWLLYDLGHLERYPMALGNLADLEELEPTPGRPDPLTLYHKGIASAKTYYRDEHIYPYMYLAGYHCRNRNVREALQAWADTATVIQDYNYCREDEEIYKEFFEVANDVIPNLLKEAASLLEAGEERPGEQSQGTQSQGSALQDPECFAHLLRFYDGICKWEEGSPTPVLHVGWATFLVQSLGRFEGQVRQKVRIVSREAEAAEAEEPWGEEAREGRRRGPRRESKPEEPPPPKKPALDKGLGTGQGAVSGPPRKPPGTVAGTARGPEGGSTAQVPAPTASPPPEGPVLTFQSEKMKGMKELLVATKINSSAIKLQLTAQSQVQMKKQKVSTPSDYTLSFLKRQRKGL

Structure (SMILES)	Potency
C/C(CC(=O)Nc1ccc(OCc2ccccc2)cc1)=N\NC(=O)C(=O)Nc1ccc(C)c(Cl)c1	inconclusive: 22.4 µM [inhibitor, single point]
Cc1cccc(NC(=O)c2cc(NC(=O)C3CCCCC3C(=O)O)ccc2Cl)n1 (centres undefined)	inactive
COc1ccc(NC(=O)Nc2ccc(C)cc2Br)c(OC)c1	inconclusive: 39.8 µM [inhibitor, single point]
O=C(COC(=O)c1ccc(F)cc1)Nc1nc2ccc([N+](=O)[O-])cc2s1	inconclusive: 25.1 µM [quencher, side channel, partial curve]
O=C(N/N=C/C1CC=CCC1)c1cc2ccccc2cc1O (centres undefined)	inconclusive: 11.2 µM [quencher, side channel, partial curve]
CCCN(CCC)C1=CC(=[N+]2CCCC2)CC(C)(C)C1	inactive
Cc1cccc(NC(=O)c2ccc3ccccc3n2)c1C	inconclusive: 10 µM [inhibitor, partial curve]
COc1cc([N+](=O)[O-])ccc1NC(=O)NCC1CCN(Cc2ccc(Cl)cc2)CC1	inactive
O=C(O)c1cc2ccccc2c(N=Nc2cccnc2)c1O	inconclusive: 3.55 µM [quencher, side channel, partial curve, poor fit]
Oc1cccc(C2c3[nH]c4ccccc4c3CCN2Cc2ccoc2)c1 (centres undefined)	inconclusive: 20 µM [quencher, side channel, partial curve]
Fc1ccc(CN2CCN(c3ncnc4scc(-c5ccc(F)cc5)c34)CC2)cc1	inconclusive: 12.6 µM [fluorescent, side channel, partial curve]
O=C(NC(=S)Nc1ccccc1O)c1ccc(Cl)cc1Cl	inconclusive: 39.8 µM [quencher, side channel, single point]
CN1CCN(CCCNC(=O)c2cc3c(=O)oc4ccccc4c3s2)CC1	inconclusive: 7.94 µM [inhibitor, partial curve, poor fit]
CCCCCn1c(N)c(-c2nc3ccccc3s2)c2c([N+](=O)[O-])nn(C)c(=O)c21	inconclusive: 2.24 µM [quencher, side channel, full curve]
CCOCCn1c(CN(Cc2ccccc2)Cc2ccccc2)nc2c1c(=O)[nH]c(=O)n2C	inconclusive: 17.8 µM [inhibitor, single point]
Cn1cnnc1SCCNS(=O)(=O)c1cccc([N+](=O)[O-])c1	inactive
CC(C)(C)N(C(=O)Cn1nnc(-c2ccc(F)cc2)n1)C(C(=O)NC1CCCC1)c1ccncc1 (centres undefined)	inconclusive: 12.6 µM [quencher, side channel, partial curve]
N=c1n(CCN2CCCCC2)c2ccccc2n1CC(O)c1ccc(Cl)c(Cl)c1 (centres undefined)	inconclusive: 4.47 µM [fluorescent, side channel, full curve, poor fit]
O=C(COc1ccc(Cl)cc1)NCCS(=O)(=O)N1CCN(c2ccccc2F)CC1	inconclusive: 25.1 µM [inhibitor, single point]
CN(C)c1ccc(/C=c2\sc3nc(-c4ccccc4)nn3c2=O)cc1	inconclusive: 3.55 µM [inhibitor, single point]

Structure (SMILES)	Potency
O=C(NCc1ccco1)c1cccc(Nc2nc3ccc(Br)cc3[nH]2)c1	inconclusive: 25.1 µM [quencher, side channel, partial curve]
C=CC[n+]1ccc(/C=C2\C=Cc3cc(C)ccc3N2CC)c2ccccc21	inconclusive: 15.8 µM [fluorescent, side channel, partial curve]
CCOC(=O)CSc1nnc2n(C3CCCCC3)c(=O)c3c4c(sc3n12)CCCC4	inconclusive: 2.82 µM [fluorescent, side channel, partial curve, poor fit]
Cc1oc2c(CN3CCCCC3C)c(O)ccc2c(=O)c1-c1ccccc1 (centres undefined)	inconclusive: 17.8 µM [inhibitor, partial curve]
CC(NC(=S)NC(=O)c1ccccc1Br)c1ccccc1 (centres undefined)	inconclusive: 20 µM [quencher, side channel, partial curve]
O=C(O)c1ccc(OCCCCCCOC2CCCCO2)cc1 (centres undefined)	inconclusive: 1.41 µM [inhibitor, full curve, poor fit]
CC(=O)N1CCC2(CC1)C/C(=N\NC(=S)Nc1ccccc1F)c1cc(O)ccc1O2	inconclusive: 31.6 µM [quencher, single point]
O=C1C(=O)c2ccc(-c3ccccc3)cc2-c2ccccc21	inconclusive: 28.2 µM [quencher, side channel, partial curve]
O=C(Cc1sc(-c2ccccc2)nc1-c1ccccc1)Nc1ccc(Cl)cc1	inconclusive: 3.16 µM [quencher, side channel, partial curve]
COc1ccc(C(=O)Nc2ccccc2C(=O)Nc2ccccc2C(=O)O)cc1	inconclusive: 7.94 µM [quencher, side channel, full curve]
Cc1cc(C)c(S(=O)(=O)Nc2cccc3cccnc23)c(C)c1	inconclusive: 39.8 µM [fluorescent, side channel, single point]
COc1ccc(C(=O)Nc2ccc(N3CCOCC3)cc2)cc1OC	inconclusive: 28.2 µM [quencher, side channel, single point]
Cc1ccc(-n2nc(C)c3cc(C(=O)O)sc32)cc1	inconclusive: 22.4 µM [quencher, side channel, single point]
O=C(O)CCCC(=O)Nc1ccc(Sc2ccc([N+](=O)[O-])cc2)cc1	inconclusive: 39.8 µM [quencher, side channel, single point]
O=C(CC(=O)c1ccccc1O)c1ccc(F)cc1	inconclusive: 22.4 µM [quencher, side channel, partial curve]
Cc1cc(F)ccc1S(=O)(=O)Nc1ncnc2scc(-c3ccc(F)cc3)c12	inconclusive: 22.4 µM [quencher, side channel, single point]
COc1ccccc1NCc1cc(=O)oc2c(C)c(O)ccc12	inconclusive: 39.8 µM [quencher, side channel, single point]
Cc1ccccc1NC(=S)N=Nc1c(O)n(C)c2ccc(S(=O)(=O)N3CCOCC3)cc12	inconclusive: 3.55 µM [quencher, side channel, partial curve]
CCOC(=O)COc1cc(OCC(=O)OCC)c2c3c(c(=O)oc2c1)CCCC3	inconclusive: 20 µM [fluorescent, side channel, partial curve]
CCOc1ccc(NC(=S)NC(=O)/C=C/c2ccc(C)cc2)c([N+](=O)[O-])c1	inconclusive: 4.47 µM [quencher, side channel, full curve]

Structure (SMILES)	Potency
COC(=O)C1=CN(Cc2ccc(C)cc2)C=C(C(=O)OC)C1c1cc(OC)c(OC)c(OC)c1	inconclusive: 6.31 µM [fluorescent, side channel, full curve]
Nc1c(CC(=O)O)cccc1C(=O)c1ccc(Br)cc1	inactive
O=C1NC(=O)N(Cc2ccccc2)C1=O	inconclusive: 39.8 µM [inhibitor, single point]
CC1CCC(C(C)C)C(OP(=O)(c2ccccc2)C(O)c2ccncc2)C1 (centres undefined)	inconclusive: 10 µM [fluorescent, side channel, partial curve]
CCCCN(C(=O)CNC(=O)c1cccs1)C(C(=O)NC1CCCC1)c1ccncc1 (centres undefined)	inconclusive: 8.91 µM [quencher, side channel, partial curve]
O=C(CSc1ccsc1[N+](=O)[O-])N1CCN(c2ccccc2)CC1	inconclusive: 15.8 µM [quencher, side channel, single point]
Cc1cccc(CN2CCN(C(C)C(=O)NC(C)c3ccccc3)CC2)c1 (centres undefined)	inconclusive: 35.5 µM [inhibitor, single point]
CC(=O)Nc1cc(NC(=O)C2C3C=CC(C3)C2C(=O)O)ccc1Cl (centres undefined)	inactive
CCOc1ccc(OCC)c(NC(=O)Nc2ccc3c(c2)N(C)C(=O)CS3)c1	inconclusive: 10 µM [quencher, side channel, partial curve]
Cc1ccc(S(=O)(=O)N2CCOCC2)cc1C(=O)Nc1nc(-c2cccnc2)cs1	inactive
Cn1c2ccccc2c2nnc(SCC(=O)Nc3cccc(C(=O)O)c3)nc21	inactive
C=CCNC(=S)NN=C1CCCCCCC1	inactive
Oc1ccc(C2C[C@H]3CC[C@@H]2C3)cc1O (some centres undefined)	inconclusive: 35.5 µM [quencher, side channel, single point]
O=c1[nH]c(/C=C/c2ccccc2Cl)c([N+](=O)[O-])c(=O)[nH]1	inactive
COC(=O)COc1cc(=O)oc2ccc(NS(=O)(=O)c3ccccc3)cc12	inconclusive: 2.24 µM [inhibitor, full curve, poor fit]
Cc1ccc(-c2cc(C(F)F)n3ncc(C(=O)N4CCN(c5ccccn5)CC4)c3n2)cc1	inconclusive: 3.16 µM [fluorescent, side channel, full curve]
O=C(c1ccccc1)c1ccc(OCC(O)CNCc2cccc(Cl)c2)cc1 (centres undefined)	inconclusive: 31.6 µM [inhibitor, partial curve]
CC(C)(C)NCc1cc(Cl)ccc1OCc1ccccc1F	inconclusive: 12.6 µM [inhibitor, partial curve]
O=C(CCSCc1ccccc1F)NCc1ccc(F)cc1	inactive
